Experimental data from the supplement of paper PMC12217912.
Some of the results follow. The full chains were built here from the parent and the listed change. Inactive controls read about 0.05.

B1: TEV protease; numbered along this chain (parent)
chain: MGESLFKGPRDYNPISSSICHLTNESDGHTTSLYGIGFGPFIITNKHLFRRNNGTLVVQSLHGVFKVKDTTTLQQHLVDGRDMIIIRMPKDFPPFPQKLKFREPQREERICLVTTNFQTKSMSSMVSDTSCTFPSGDGIFWKHWIQTKDGQCGSPLVSTRDGFIVGIHSASNFTNTNNYFTSVPKNFMELLTNQEAQQWVSGWRLNADSVLWGGHKVFMVKPEEPFQPVKEATQL

Variants of: B1
Test: raw area under fraction-flipped curve 0-4 h after induction (AUC4h, not background-subtracted), DNA-recorder readout of cleavage of the substrate (dimensionless); higher = more cleavage of the substrate by the protease variant
Conditions: temperature: 34 °C; time window: 0-4 h after rhamnose induction
Method: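 In vivo DNA recorder in E. coli TOP10(DE3) ΔrhaA at 34 °C. Each TEVp single-site mutant (parent TEVp 0) is paired with a single-site variant of the 7-mer TEVs (canonical ENLYFQ|S). The substrate sits between flexible linkers in a Bxb1-sfGFP-TEVs-SsrA fusion, so cleavage stabilises Bxb1 and speeds flipping of a recombination array, read by NGS. The value is the raw area under the fraction-flipped curve over 0-4 h after rhamnose induction (AUC4h), with ≥20 reads per time point. It is not background-subtracted; inactive controls average about 0.047.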
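Further: Bxb1 expression induced with 0.2% (w/v) L-rhamnose at OD600 near 0.5, cultures sampled hourly, flipped fraction per protease–substrate barcode pair counted by paired-end Illumina sequencing.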

Variant	area with substrate ENLYFAS	area with substrate ENLYFCS	area with substrate ENLYFGS	area with substrate ENLYFIS	area with substrate ENLYFKS	area with substrate ENLYFLS	area with substrate ENLYFMS	area with substrate ENLYFNS	area with substrate ENLYFPS	area with substrate ENLYFRS	area with substrate ENLYFTS	area with substrate ENLYFES	area with substrate ENLYFFS	area with substrate ENLYFWS	area with substrate ENLYFHS	area with substrate ENLYFSS	area with substrate ENLYFVS	area with substrate ENLYFYS	area with substrate ENLYFDS
K90C	0.0623	0.0545	0.0533	0.0491	0.0523	0.103	0.0648	0.0648	0.0416	0.0576	0.0844	–	–	–	–	–	–	–	–
P93H	0.0615	–	–	0.058	–	–	0.0763	0.0843	0.0598	0.0564	–	0.063	0.061	0.0519	–	–	–	–	–
P14Q	0.0654	0.0553	–	0.053	0.0572	–	0.0668	0.0638	0.0637	0.0443	0.0678	0.0552	0.0559	0.0551	0.0587	0.0565	0.0648	0.0625	–
L61V	0.0539	0.0694	–	0.0501	0.0589	–	0.0785	–	0.0584	–	0.0203	0.0745	–	0.0503	0.0465	0.0364	–	–	–
V157I	0.0256	0.0623	–	–	–	0.0622	0.0828	–	0.0728	0.0563	0.0483	–	–	–	0.0536	0.0465	0.0548	0.0539	0.0557
S60A	0.0567	0.0674	–	0.0562	–	0.0539	0.0628	0.0683	0.0676	0.0673	–	0.0689	0.0818	0.0645	0.0578	0.0658	0.0531	–	–
W141T	0.0589	–	0.0588	–	0.0619	–	0.0493	–	–	–	–	–	0.057	–	0.055	–	–	0.0728	0.056
R50F	0.043	0.0633	0.0372	0.0602	0.0501	0.0597	0.0905	0.0759	0.0553	–	–	–	0.069	0.0629	0.057	0.0648	–	0.0537	–
R50V	0.0516	0.0681	–	0.0584	–	–	0.0681	0.0657	0.0747	0.0456	–	–	0.0718	0.0647	–	0.0393	–	–	–
T132P	0.0417	–	0.0541	–	–	–	0	–	0.0612	–	0.061	0.0637	0.0434	0.0445	0.0707	0.0488	0.0729	–	–
T132L	0.0523	–	–	0.0575	0.0687	0.0503	0.074	0.0783	0.0579	0.0537	0.058	–	–	0.0615	0.0703	0.0409	–	–	0.0583
D208G	0.0682	0.0706	–	0.0472	0.079	0.0604	0.0615	–	0.0679	0.0451	–	0.0596	–	–	0.0601	–	–	–	0.0591
G54D	0.0549	0.0612	0.0546	0.0547	–	–	0.0609	–	–	0.0693	0.0604	0.0539	0.0668	0.0463	–	0.0452	0.0608	0.0599	0.0246
G54F	0.062	–	–	0.0587	–	0.0735	0.0575	0.0779	0.0655	–	–	0.0577	0.075	0.0606	–	0.0438	0.0558	0.0592	0.0499
